The values that follow come from ChEMBL document CHEMBL4888484, “Replenishing the malaria drug discovery pipeline: Screening and hit evaluation of the MMV Hit Generation Library 1 (HGL1) against asexual blood stage Plasmodium falciparum ,using a nano luciferase reporter read-out” (2022).

Screen size: about 150,000 compounds; about 540 (0.36%) showed an effect of 50% or more. The list shows a part of the results.

The assay deals with Plasmodium falciparum. Put plainly: Primary screen in NF54 nanoGlo assay, in single point, at 2uM, 72h; a lower Z score goes with more inhibition. The class given is functional, Erythrocyte. The conditions noted are these: timepoint 72 hour.
Take `Cc1nc2nc(N)n(-c3ccccc3)[n+]2c(C)c1C`: the % Inhibition (as a rule, the change of the read-out against control, counted positive when it falls) was determined as 3% and the Z score was -0.37.

On to `COc1cc(-c2cc(C3CC3)c(C#N)c(N)n2)cc(OC)c1OC`, for which the “% Inhibition” value stood at 0% and the Z score is given as -0.03.

Take `COc1ccccc1OCC[C@H]1CCN(C(=O)CC2CCCC2)C1`: the “% Inhibition” value is -11% and the Z score is 2.07.

For the compound `O=C1NCCOCCCN(C(=O)NCc2ccccc2)[C@H]2CCC[C@@H]12`, the “% Inhibition” value is -7% and the Z score stood at 0.95.

For `O=C(NC1CC(c2cccc(Cl)c2)C1)N[C@H]1CC[C@@H](CO)C1` (stereo partly specified), the “% Inhibition” value is given as -8% and the Z score amounted to 0.87.

Regarding `CCC(=O)N1c2ncnn2C(c2ccc(C)cc2)CC1c1ccccc1` (stereo unspecified), the “% Inhibition” value amounted to 3% and the Z score is listed as -0.41.

With `O=C(NC[C@H]1CCCN(C(=O)C2=CCCC2)C1)c1ccccc1Cl`, the “% Inhibition” value is given as -10% and the Z score came out at 1.16.

`COC(=O)[C@@H]1C[C@@H](N(C)C)CN1S(=O)(=O)c1ccc(NC(C)=O)cc1`: the “% Inhibition” value is -1% and the Z score was 0.12.

Take `CC1CN(c2ccc3nnnn3n2)CC(C)O1` (stereo unspecified): the “% Inhibition” value was -22% and the Z score stood at 1.88.

With `Cc1ccc(C(=O)Nc2ccc(N3CCCN(C(=O)NC(C)(C)C)CC3)c(C(=O)N3CCCCC3)c2)cc1`, the “% Inhibition” value turned out to be 1% and the Z score is listed as -0.16.

For the compound `Cc1ccc(C(=O)N(CCN2CCOCC2)CC(=O)Nc2nc(-c3ccccc3)cn2-c2ccc(C)cc2)cc1`, the “% Inhibition” value is given as -2% and the Z score is given as 0.26.

Regarding `Cc1cc2c(N3CC[C@H](N4CCOCC4)[C@H](CCC(=O)O)C3)ncnc2s1`, the “% Inhibition” value is on record as -12% and the Z score came to 1.51.

For the compound `COc1ccc(C(=O)N2CCN(c3ccc(=O)n(-c4ccc(C)cc4)n3)CC2)cc1`, the “% Inhibition” value is 21% and the Z score is -2.44.

Consider `CC(C)C(=O)NCc1ccc(CNC(=O)C(C)C)cc1`, for which the “% Inhibition” value is listed as -4% and the Z score came out at 0.51.

On to `C[C@@H](CC(=O)NC(CO)CO)c1ccccc1Br`, for which the “% Inhibition” value was determined as 3% and the Z score was -0.48.

`CC(=O)N1CCN(C(=O)Cn2cnc3c2CC(C)C(C)C3)CC1` (stereo unspecified): the “% Inhibition” value is on record as -9% and the Z score turned out to be 1.6.

Consider `Cc1ccc2nc(C(=O)Nc3ccccc3N3C(=O)N[C@@H](C)C3=O)c(F)n2c1`, for which the “% Inhibition” value was found to be 0% and the Z score is on record as 0.04.

`Cc1ccc2[nH]c(CN3CCS(=O)(=O)C(C)C3C)cc2c1C` (stereo unspecified): the “% Inhibition” value is recorded as -2% and the Z score came to 0.46.

In the case of `O=C(NCC(F)(F)c1ccc(F)cc1)NC1CC2CCCCN2C1=O` (stereo unspecified), the “% Inhibition” value is recorded as -10% and the Z score is given as 1.27.

Regarding `O=C(O)CC1(NC(=O)c2ccc3ccccc3c2)CCCC1`, the “% Inhibition” value is 22% and the Z score was -2.61.

With `CCN(Cc1cnc2ccccn12)S(=O)(=O)N(C)C`, the “% Inhibition” value came to 0% and the Z score was -0.02.

With `Cc1ccc2c(c1)-c1c(cnc3cc(-c4ccc(Cl)cc4)nn13)CO2`, the “% Inhibition” value amounted to 14% and the Z score is -1.6.

For the compound `Cc1ccc2ncc(C(=O)N3CC(c4ccccc4F)C3)n2c1`, the “% Inhibition” value is -8% and the Z score was 1.06.

In the case of `COc1ccc(Cl)cc1N1CCN(Cc2ccc(C(=O)N[C@@H](C)c3ccccc3)o2)CC1`, the “% Inhibition” value is -6% and the Z score is 1.05.

As to `O=C(c1cc(C(F)(F)F)n[nH]1)N(Cc1ccncc1)C1CCCCC1`, the “% Inhibition” value was -10% and the Z score came out at 1.03.

For `COc1ccc2c(c1)OCC[C@@H]2Nc1nc(C(C)C)no1`, the “% Inhibition” value is 1% and the Z score is recorded as -0.18.

Consider `COc1ccc(C2=NNC(c3ccc(F)cc3)=Nc3ccc(F)cc32)cc1`, for which the “% Inhibition” value came to 9% and the Z score is -1.09.

Turning to `c1ccc2oc(CN3CCN(c4nccs4)CC3)nc2c1`, the “% Inhibition” value is -1% and the Z score is recorded as 0.22.

With `COCC1CCN(C(=O)C2CCCCN2C(C)C)C1` (stereo unspecified), the “% Inhibition” value is -3% and the Z score is given as 0.49.

As to `CC(C)n1cc(CNC[C@H]2CCO[C@@H]2C(C)(C)C)cn1`, the “% Inhibition” value is listed as -2% and the Z score is given as 0.32.

As for `Cc1cc(C)n2cc(CNC(=O)C[C@@H]3NC(=O)NC3=O)nc2c1`, the “% Inhibition” value was determined as 4% and the Z score is -0.76.

As for `O=C(NCCCc1cnc2ncnn2c1)c1ccncc1`, the “% Inhibition” value came out at 8% and the Z score is reported as -1.58.

As for `O=C(O)CC[C@H]1CCCN(C(=O)c2cc3ccccc3cc2O)C1`, the “% Inhibition” value is -7% and the Z score is recorded as 0.98.

For `c1cc(-c2n[nH]c(C3CCCCC3)n2)c2cccnc2c1`, the “% Inhibition” value is on record as -4% and the Z score is 0.71.

In the case of `C[C@H](NC(=O)C1(C)CCOCC1)c1ccn(C)n1`, the “% Inhibition” value stood at 3% and the Z score is recorded as -0.52.

For the compound `CCOC(=O)c1[nH]c(NC(C)=O)c(C#N)c1C`, the “% Inhibition” value is given as -10% and the Z score is given as 1.5.

Regarding `CC(C)(C)OC(=O)N/N=C(\N)COc1cc(Cl)cc(Cl)c1`, the “% Inhibition” value worked out at 5% and the Z score is -0.52.

As for `C/C(C(=O)Nc1ccc(C(=O)c2ccccc2)cc1N)=C(/C)c1nc2cc(C(=O)c3ccccc3)ccc2[nH]1`, the “% Inhibition” value is listed as -20% and the Z score was determined as 2.31.

Take `CC(C)(C)NC(=O)CNC(=O)c1cccc(Cl)c1`: the “% Inhibition” value is on record as -8% and the Z score stood at 0.68.

`Cc1cc(C(=O)Nc2ccc3nc(C)sc3c2)no1`: the “% Inhibition” value is on record as -6% and the Z score is reported as 0.54.

As for `O=C1O[C@H]2CN(c3ccc(Cl)cn3)C[C@H]2N1Cc1ccccn1`, the “% Inhibition” value turned out to be 3% and the Z score is -0.53.

For the compound `CC(NC(=O)NC1Cc2ccccc2N(C)C1=O)C1Oc2ccccc2C1C` (stereo unspecified), the “% Inhibition” value was -13% and the Z score was 2.34.

Consider `O=C(C[C@H]1c2ncccc2C(=O)N1Cc1ccc(F)cc1)NCc1ccccc1`, for which the “% Inhibition” value is on record as -12% and the Z score worked out at 2.28.

Consider `CCc1nnc(N2CCC[C@@]3(CCC(=O)N(CCc4ccccc4)C3)C2)s1`, for which the “% Inhibition” value is given as 5% and the Z score is on record as -0.66.

For `O=C1N[C@H]2CCC[C@@H]1CN(CC(=O)N1CCc3ccccc31)C2`, the “% Inhibition” value is recorded as 2% and the Z score is on record as -0.34.

As for `O=S(=O)(N[C@H]1CC12CCNCC2)c1ccc(CC(F)(F)F)cc1`, the “% Inhibition” value is on record as -6% and the Z score is 0.69.

Take `COc1ccc(Cn2nc(C)cc2NC(=O)NCc2cc(C)on2)cc1OC`: the “% Inhibition” value is recorded as -12% and the Z score came to 1.62.

Regarding `CO[C@@H](C)c1nc(CN(C)c2ncnc(-n3cccn3)c2N)cs1`, the “% Inhibition” value is on record as -4% and the Z score is 0.51.

As for `Cc1oc(-c2cc(F)cc(F)c2)nc1CN1CCc2n[nH]cc2C1`, the “% Inhibition” value was -12% and the Z score was 2.46.

With `CC(C)C1CCN(C(=O)c2cccc(-n3cc[nH]c3=O)c2)CC1`, the “% Inhibition” value is -9% and the Z score amounted to 1.7.

With `C[C@H](NS(=O)(=O)c1cccc(-n2cnnn2)c1)c1ccncc1`, the “% Inhibition” value is listed as -2% and the Z score worked out at 0.23.

`O=C(O)C[C@H](NCc1cnn(Cc2ccccc2Cl)c1)c1ccsc1`: the “% Inhibition” value is recorded as -12% and the Z score is given as 1.19.

On to `O=C(CN1C(=O)c2cc(Cl)c(Cl)cc2C1=O)N1CCc2ccccc2C1`, for which the “% Inhibition” value is 4% and the Z score is reported as -0.8.
